# From the supplement of paper PMC11417369
# Some of the results follow.
# Test system: PF3D7_0420300 AP2 domain 1 (GST-tagged)
# Assay: gcPBM binding intensity (ln(normalized median fluorescence intensity)); higher = stronger DNA binding
# Method in brief: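 GST-tagged P. falciparum DNA-binding domains, expressed in E. coli (about 25 μg on average), were applied for 1 h to an Agilent 4 × 180k array of primer-extended double-stranded 36-bp intergenic genomic probes plus negative controls. The binding buffer was 1× PBS with 1% milk, 0.2 mg/ml BSA, 0.5% salmon testes DNA and 0.03% Triton X-100. Bound protein was detected with Alexa488 anti-GST antibody and scanned at 488 nm. Binding intensity is the highest Masliner-normalised natural-log median intensity across replicate spots of either probe orientation.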
row,Sequence,gcPBM binding intensity (ln)
1,ATTTATGTTATATATACACACACAAAAGAAAAAAAA [CACACA_site8977],9.82
2,ATTGTCTTTTAATAGTGTACTTATTTTAAATATTGC [XGTACX_site8517],9.39
3,TTTCTAATATATAAAGTGCAATACCATTCAGAGTTA,9.08
4,ATATGGAAGAATTAAAGTACTTAAAAAAATGTCAGT [XGTACX_site6837],9.43
5,TTTTATAGAGTGTATACATGCAATACCACATAAAAT [TGCATGCA_site476],9.29
6,TATAATTTATAAGTAGTGCATTTCTTTTCATTTTTA,9.22
7,AAGAAAATAAAATAAAATAAAATAAAATAAAAATAT [TGCATGCA_negctrl_site493],9.46
8,TTATTATATATAAGTAGTACAAACAATTAAGAGATA [XGTACX_site4009],9.47
9,TGATGATATAAAAACACACACATATAACATAATACT [CACACA_site6687],9.95
10,TTTCTTTCTATTGTTATATTTATAATAATTATAATT [XGTACX_negctrl_site215],9.33
11,TATAAAATTACATTTTGTCATTTATTTTTTCCCACT [TGCATGCA_negctrl_site110],9.13
12,TGTTTAAGTGTTTTTAGTACTTATAAAAATATTATC [XGTACX_site7379],8.96
13,ATATTATCCCTATTTGCACACAAGAGTAATTTTTTA [CACACA_site3908],9.47
14,CTTTTTAATTAATACACACACACACCCATATATATA [CACACA_site2292],10.2
15,ATCACTTGAGAATAATTACATTAATATATATTTATG [TGCATGCA_negctrl_site581],9.14
16,GGGAAAGAACCATATACATGCATATTTACCGTTAAA [TGCATGCA_site519],9.18
17,CATATACATACACATACACACATACAGACATACACA [CACACA_site6919],9.83
18,TGAAATTTTATTAATGTGCACATATATTTATTGTTC,9.25
19,TTTTTTTTTTTTAATACACACATATATATATTTATT [CACACA_site3994],9.48

row,Sequence,gcPBM binding intensity (ln)
1,GTAAAAAAAAAAAAATGTACACATATATATAATATA [XGTACX_site159],9.18
2,AACATAATTAAAAATTGTACAGAATTTCAATCGAAA [XGTACX_site7542],9.24
3,ATAAAAATGTATATATGTACATATATATATATATAT [XGTACX_site1505],9.28
4,ATATGTGTTAAAAATGCACACAAAAAAATATACATA [CACACA_site7988],9.52
5,CAATTTTACTCATAAACACACATATATATGTTATTA [CACACA_site3152],9.32
6,TGATATTATATTGTGATGCACTTTAAAAATATAAAG [GTGCAC_site9509],8.96
7,ATGGTTTAATTATATACACACTCGAAAATAACGACA [CACACA_site3258],9.35
8,TTTTACAAATGTTTTACACACACATAATTGTATCAA [CACACA_site4166],9.75
9,AAAAAAAGGATGTACGTATCATAATTTTATTTTATA [CACACA_negctrl_site1543],9.12
10,CTTATTTTATTCGAATGTACATAATTGTTAGACATT [XGTACX_site8583],9.14
11,AATAATAACAAATGAACACACATATAGATGAGCAAA [CACACA_site7076],9.89
12,TATCTCATGCGCACAAAAATATATGCAAAGAGTATA [TGCATGCA_negctrl_site201],9.21
13,CTTAAGTAAAATTAAAGTACATGGACAAAAAATATA [XGTACX_site7900],9.42
14,TGGGTATATATAAAAGGTACACAAAATGAAGATATA [XGTACX_site4994],9.51
15,TAATTTCTTATGTATTGTACAAATAATATATTATAT [XGTACX_site1037],9.28
16,TTTTCTGTGTTTTTGGGTACACACAAATAGCTTGTA [XGTACX_site8553],9.6
17,TGTTTCTAAAAATTTACACACAAAATATTTCTACAT [CACACA_site4098],9.55
18,CCTATAAAACCATATACACACATATATATAAAAAAA [CACACA_site4013],9.65
19,TTATACGATAATATGACACACAATACAAAAATGTAA [CACACA_site1918],9.49

row,Sequence,gcPBM binding intensity (ln)
1,TATTGTAGTCATGCACGTACAAAAGGAAAGTTAAAA [XGTACX_site4446],9.17
2,AAATAAAATATTACATGTACATGTTCATAAAAAAAA [XGTACX_site1067],9.13
3,ATAAATTAATGGAGAAATCTTATGAATTTATTTTAA [CACACA_negctrl_site1068],8.86
4,AATAAAAAGGAACACACACACACACCGATATATATA [CACACA_site5895],10.2
5,TACATACACAGACACACACACATATATATATATATA [CACACA_site3557],9.89
6,TAAATATAAGTGTACATACACACTTTACAATCTCAT [CACACA_site3006],9.28
7,AATATATACATATATACACACACATATATTATATAT [CACACA_site7980],9.84
8,AAAAAAAAAAAAATTGCATGTAAATGAAATAATAAA [TGCATGCA_site116],9.16
9,AAAGAAGAAAAATATAGTACAGGGCACATGTCCTGT [XGTACX_site6293],9.2
10,TTATTTTTATATTTCACACACATATACTTTTACATA [CACACA_site4097],9.77
11,ATTTAAATTTAAAAAACACACATAATATGATATATA [CACACA_site1973],9.45
12,CTCTTTTCTTATAATACACACAGTAATATTTATATA [CACACA_site6824],9.47
13,AATAAAAAAAATTTCTGTACATATATTTATTATATA [XGTACX_site1883],9.01
14,CAAACCCACCAACACACACACACAAAAATGATTAAA [CACACA_site2432],9.82
15,TACTTTTTTATTTGGTGTACAAATAAAATCATAATG [XGTACX_site1802],9.15
16,ATATATTTTGATTGCACACAGAATTTAAATCATGAT [CACACA_site2343],9.36
17,GAAGATATATAATAATTCATAGTTTTTTAATTTAAA [TGCATGCA_negctrl_site295],8.86
18,TATATTTTTATGTGTGTGCACAAAATAACAAAATAT [GTGCAC_site9596],9.61
19,ATTATTTTTTTTGAAGTGCAATATTATTTTTAATCA,9.1
